The list shows a part of the results. At the low end of the ranking the order means little.

The results in this text go back to paper PMC10668032.

In the assay the target is SIX1 homeodomain (reference allele) (UniProt Q15475). In words: universal protein binding microarray. As to conditions: Universal all-10-mer PBM (8x60K, AMADID 030236), 300 nM GST-tagged protein, Alexa Fluor 488 anti-GST; buffer, salt, pH and temperature not stated; high values mean tight binding; most listed sequences are background and not binding sites; double strand, one strand shown.
For CCCCCACA, the binding signal is -0.055 E-score.
As for AACTTGAT, the binding signal worked out at 0.275 E-score.
As for CCCGAAAG, the binding signal was -0.103 E-score.
In the case of AGCGACAA, the binding signal was -0.255 E-score.
Consider AGTTAAGA, for which the binding signal was -0.0724 E-score.
For AACAATCG, the binding signal is -0.0744 E-score.
Consider GGGCCTAC, for which the binding signal is -0.251 E-score.
With TCCGTTCA, the binding signal was -0.0554 E-score.
Turning to GCCTCAGA, the binding signal amounted to 0.105 E-score.
The result for AAGCCACG reads -0.102 E-score.
CATGATCC: the binding signal was 0.394 E-score.
Turning to TTAGTCAA, the binding signal is -0.169 E-score.
Consider AAACGTGT, for which the binding signal is -0.202 E-score.
As for CCCACTGA, the binding signal stood at 0.191 E-score.
For the sequence GGGCTTAA, the binding signal is -0.157 E-score.
Regarding AGGCTAAA, the binding signal was -0.228 E-score.
ACCTTAAC: the binding signal is -0.0636 E-score.
For GGGGGCTA, the binding signal was -0.0415 E-score.
As for AGGATGCA, the figure is 0.0134 E-score; as for AAATGAGA, 0.16 E-score.
As for CTTAGAGC, the figure is -0.0596 E-score; as for AGTTACGG, -0.185 E-score.
As for CATGTGTC, the figure is -0.0455 E-score; as for AAGAAGGA, -0.0489 E-score.
As for ATATGAGG, the binding signal stood at 0.156 E-score.
As for CAGGGACC, the figure is -0.154 E-score; as for CCGGCCTA, -0.0768 E-score.
On to CAAACGTC, for which the binding signal was -0.165 E-score.
For AAACCCCA, the binding signal amounted to 0.147 E-score.
With AATGTCGG, the binding signal is -0.0726 E-score.
With AAAAGACG, the binding signal was -0.181 E-score.
As for GCTAGACA, the binding signal was -0.085 E-score.
With ATTCCACC, the binding signal was found to be 0.164 E-score.
For CCCGCTCA, the binding signal worked out at 0.00145 E-score.
Turning to ATCCCGTG, the binding signal is 0.217 E-score.
For CTGGCAGC, the binding signal is -0.293 E-score.
As for AACCTTTC, the figure is -0.155 E-score; as for TTCTAGAA, -0.0938 E-score; as for GTTACTGA, 0.0553 E-score.
The result for CTAACAGA reads -0.0108 E-score; that for GAGCGTAC, -0.129 E-score.
As for CAATAATC, the figure is 0.0942 E-score.
With AGTTATAG, the binding signal is -0.0982 E-score.
As to GCCTGCGC, the binding signal is -0.174 E-score.
As to AGCCGTTG, the binding signal was -0.141 E-score.
In the case of GGTTATGA, the binding signal was 0.132 E-score.
Consider ACGCCTTC, for which the binding signal is -0.154 E-score.
With CCCCGGGC, the binding signal is -0.0863 E-score.
In the case of ATTGAGAA, the binding signal turned out to be 0.0916 E-score.
For ATTCGGAC, the binding signal is -0.0388 E-score.
As to CCTCTTGA, the binding signal was determined as 0.00803 E-score.
Turning to CATCCGCA, the binding signal was 0.0493 E-score.
Consider GACATAAC, for which the binding signal is -0.242 E-score.
As to AATGGCTC, the binding signal is 0.0159 E-score.
Take ATAACCAC: the binding signal was 0.191 E-score.
Turning to CCTGGTCC, the binding signal was -0.0157 E-score.
In the case of AACCCCGT, the binding signal is 0.121 E-score.
For the sequence TAAACTCA, the binding signal is -0.0938 E-score.
The result for ATAACTAT reads 0.0285 E-score; that for CACTTTGA, -0.0844 E-score; that for CCCGCCGG, 0.178 E-score.
For GAGCTTGA, the binding signal was -0.0587 E-score.
For ATTTTTCC, the binding signal was -0.0759 E-score.
For ACACTCAA, the binding signal was -0.0785 E-score.
The result for CAACGCCA reads -0.0862 E-score; that for AAGCTCCC, -0.185 E-score; that for CCCTCCAA, -0.045 E-score.
With AACGGGCA, the binding signal stood at 0.0321 E-score.
On to GCACTTAC, for which the binding signal was -0.232 E-score.
As to CAGGTCTC, the binding signal is -0.044 E-score.
As to AGATGGCC, the binding signal was -0.124 E-score.
As to AGTTTAGC, the binding signal was -0.194 E-score.
Take TATAAACA: the binding signal stood at 0.134 E-score.
With ACCGACCG, the binding signal was -0.0081 E-score.
As to ATGAATAA, the binding signal came to 0.00218 E-score.
Take CCAATACC: the binding signal is 0.324 E-score.
The result for CTGATAGA reads 0.000815 E-score; that for AAAGTACA, -0.112 E-score.
As for AGCGCTCA, the binding signal is -0.168 E-score.
ATGCAACA: the binding signal is -0.127 E-score.
Consider CTCGAGTC, for which the binding signal is -0.225 E-score.
For the sequence ACCAATCA, the binding signal was -0.0895 E-score.
Take AGACCCGC: the binding signal is 0.0366 E-score.
On to ATATTTGC, for which the binding signal came to 0.0788 E-score.
ACCTACAC: the binding signal stood at 0.00607 E-score.
The result for AACTACCT reads -0.223 E-score; that for CTCCATGC, -0.0693 E-score; that for AGGCCTTC, -0.39 E-score.
The result for GCGTCAAA reads -0.0847 E-score; that for CTCTAAAC, -0.198 E-score; that for CAGCTGGG, 0.0839 E-score.
The result for AAGGAACC reads -0.0496 E-score.
Turning to AAGACGAA, the binding signal is -0.152 E-score.
On to AATGTCAT, for which the binding signal was -0.255 E-score.
As for GATTCGAA, the binding signal is -0.0371 E-score.
Take ATCCATTC: the binding signal turned out to be 0.287 E-score.
Regarding ATGATCTA, the binding signal was determined as 0.346 E-score.
In the case of CGTGAACA, the binding signal was -0.0745 E-score.
The result for GCATCCGC reads 0.14 E-score; that for CCCGAAGG, 0.0834 E-score; that for AACCGCGG, 0.058 E-score.
Take GACTGTTA: the binding signal is -0.18 E-score.
As for AGTGTACA, the binding signal is -0.118 E-score.
As to GAGGCAAA, the binding signal is -0.122 E-score.
As for AGCCGCAG, the figure is -0.133 E-score.
As to AAATGCCA, the binding signal was -0.213 E-score.
Regarding CCTACCGA, the binding signal was found to be 0.0487 E-score.
The result for CCCCCGAA reads 0.11 E-score.
Turning to CCGGTCCA, the binding signal is -0.191 E-score.
In the case of AGACAAGG, the binding signal is -0.0177 E-score.
With ACGACGAC, the binding signal was -0.364 E-score.
In the case of GCGGCTAC, the binding signal stood at 0.0202 E-score.
The result for TCAACTAA reads 0.0551 E-score; that for ATTATTGC, -0.00181 E-score; that for ACGTAGTC, -0.202 E-score.
Take GGGACGGA: the binding signal was 0.00348 E-score.
As for ATAGTATG, the figure is 0.258 E-score; as for CCGTGAAG, -0.244 E-score; as for GAAGAGAC, 0.0397 E-score.
As for ACGCGTCA, the figure is -0.0604 E-score.
With GTCTTGGA, the binding signal was -0.131 E-score.
With GCCTTACC, the binding signal was -0.162 E-score.
As for CACTATTA, the figure is 0.0807 E-score; as for AACGTTGA, -0.317 E-score; as for ACCCACCA, -0.0266 E-score.
The result for ACACCCTA reads 0.31 E-score; that for GAAAACGC, -0.374 E-score.
As for AGAAATAT, the figure is -0.00364 E-score; as for ATGCACTA, 0.159 E-score; as for GTATAGAC, 0.276 E-score.
As to CAGAAGTA, the binding signal is -0.0554 E-score.
As to CCGATAAA, the binding signal came out at 0.0259 E-score.
Consider GTAATGTA, for which the binding signal was -0.255 E-score.
CCACCTTC: the binding signal was found to be 0.127 E-score.
The result for AACAGTAA reads -0.178 E-score; that for GAAGGCTA, -0.0602 E-score; that for CTTAGTCA, -0.314 E-score.
Turning to AGCTTCGC, the binding signal is -0.231 E-score.
As for CTGCCACA, the figure is -0.259 E-score.
Take AAACCGAT: the binding signal came out at 0.184 E-score.
Consider GTTAAGTA, for which the binding signal is -0.0281 E-score.
On to TGTGAAAA, for which the binding signal is -0.238 E-score.
The result for CGCATACA reads 0.0807 E-score.
As for AATTATAT, the binding signal came out at 0.167 E-score.
As to ATTGCCGC, the binding signal was -0.245 E-score.
Regarding ATACTGAT, the binding signal is 0.349 E-score.
As for AAATGACC, the figure is -0.236 E-score.
As for AGCGATGC, the figure is -0.0345 E-score; as for GCATTAAC, -0.0109 E-score.
Turning to CGCCTCGC, the binding signal is -0.104 E-score.
Regarding ACAAGTCG, the binding signal was -0.0906 E-score.
As for AAGTACCT, the figure is -0.0949 E-score; as for ATTACGCG, 0.111 E-score; as for ATTGGCTA, 0.122 E-score.
The result for GGGCCACC reads -0.21 E-score.
Consider AGAATCGC, for which the binding signal was -0.034 E-score.
GACGTTTA: the binding signal is -0.157 E-score.
As for ACTCGAAT, the binding signal is -0.237 E-score.
In the case of GTCTACTA, the binding signal was -0.041 E-score.
In the case of AACAGTTC, the binding signal was -0.194 E-score.
In the case of ACCTTACT, the binding signal was -0.00958 E-score.
With ACGACCCA, the binding signal is -0.0702 E-score.
As to GGATCAAC, the binding signal stood at 0.39 E-score.
Turning to CCGAAAGA, the binding signal was -0.15 E-score.
For CTGTCTAA, the binding signal amounted to 0.0106 E-score.
Take AGTTAGCA: the binding signal was -0.235 E-score.
Take GAACAATC: the binding signal was -0.00307 E-score.
Regarding TAAGCATA, the binding signal was found to be 0.0115 E-score.
As to AGGCGGCA, the binding signal was -0.174 E-score.
In the case of ACGGATCG, the binding signal worked out at 0.354 E-score.
The result for ATGTATCG reads 0.38 E-score; that for AATGAGTA, 0.0975 E-score.
